# In the supplement of paper PMC8728848:
# Some of the results follow.
# B1: LFA (Limax flavus) (protein)
# chain: MSVLFLAASFLLLASFELVAAQGCPRQDPGDWIVIQRRLNADVNFYRGWADYKHGFGDLRCNFWLGNEKIHQLTSHGRYKLRVEFTFNNKSYFAEYSTFKILGEADKYKLQVGGYSGNAGDALTFHNGMAFSTNDRDNDADSIDCAKVYHGAWWYKTCHESNLNGKWGSKKYGEGLNWKAKTTFTATATSSLLKIKALK
# Experiments:
# Assay in all cases: glycan array binding signal (z-score within array); higher = stronger binding
# Details in all cases: glycan notation: IUPAC condensed, linker removed
# [1] = biological target: Fuc(a1-2)Gal(b1-4)GlcNAc(b1-3)Gal(b1-4)GlcNAc(b1-2)Man(a1-3)[Fuc(a1-2)Gal(b1-4)GlcNAc(b1-3)Gal(b1-4)GlcNAc(b1-2)Man(a1-6)]Man(b1-4)GlcNAc(b1-4)GlcNAc
# In short: (§1)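 Glycan array binding is given as a within-array Z-score, which can be read as non-binding when negative. The arrays, 3228 of them, came from the Consortium for Functional Glycomics database and were retained only where the protein sequence was available. Z-scores were averaged across arrays of the same protein sequence at different concentrations or buffers and across linkers.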
# [2] = biological target: Fuc(a1-2)Gal(b1-4)GlcNAc(b1-3)Gal(b1-4)GlcNAc(b1-3)Gal(b1-4)GlcNAc
# In short: as §1
# [3] = biological target: Fuc(a1-2)Gal(b1-4)GlcNAc(b1-3)GalNAc
# In short: as §1
# [4] = biological target: Fuc(a1-2)Gal(b1-4)GlcNAc(b1-3)[Fuc(a1-2)Gal(b1-4)GlcNAc(b1-6)]GalNAc
# In short: as §1
# [5] = biological target: Fuc(a1-2)Gal(b1-4)GlcNAc(b1-3)[Fuc(a1-3)[Gal(b1-4)]GlcNAc(b1-6)]Gal(b1-4)Glc
# In short: as §1
# [6] = biological target: Fuc(a1-2)Gal(b1-4)GlcNAc(b1-6)GalNAc
# In short: as §1
# [7] = biological target: Fuc(a1-2)Gal(b1-4)GlcNAc6S
# In short: as §1
# [8] = biological target: Fuc(a1-2)Gal(b1-4)[Fuc(a1-3)]GlcNAc
# In short: as §1
# [9] = biological target: Fuc(a1-2)Gal(b1-4)[Fuc(a1-3)]GlcNAc(b1-2)Man(a1-3)[Fuc(a1-2)Gal(b1-4)[Fuc(a1-3)]GlcNAc(b1-2)Man(a1-6)]Man(b1-4)GlcNAc(b1-4)[Fuc(a1-6)]GlcNAc
# In short: as §1
# [10] = biological target: Fuc(a1-2)Gal(b1-4)[Fuc(a1-3)]GlcNAc(b1-2)[Fuc(a1-2)Gal(b1-4)[Fuc(a1-3)]GlcNAc(b1-4)]Man(a1-3)[Fuc(a1-2)Gal(b1-4)[Fuc(a1-3)]GlcNAc(b1-2)Man(a1-6)]Man(b1-4)GlcNAc(b1-4)GlcNAc
# In short: as §1
# [11] = biological target: Fuc(a1-2)Gal(b1-4)[Fuc(a1-3)]GlcNAc(b1-3)Gal(b1-4)[Fuc(a1-3)]GlcNAc
# In short: as §1
# [12] = biological target: Fuc(a1-2)Gal(b1-4)[Fuc(a1-3)]GlcNAc(b1-3)Gal(b1-4)[Fuc(a1-3)]GlcNAc(b1-3)Gal(b1-4)[Fuc(a1-3)]GlcNAc
# In short: as §1
# [13] = biological target: Fuc(a1-2)Gal(b1-4)[Fuc(a1-3)]GlcNAc(b1-3)GalNAc
# In short: as §1
# [14] = biological target: Fuc(a1-2)Gal(b1-4)[Fuc(a1-3)]GlcNAc(b1-3)[Neu5Ac(a2-6)Gal(b1-4)GlcNAc(b1-6)]Gal(b1-4)Glc
# In short: as §1
# [15] = biological target: Fuc(a1-2)Gal3S(b1-4)GlcNAc
# In short: as §1
# [16] = biological target: Fuc(a1-2)Gal6S(b1-3)GlcNAc
# In short: as §1
# [17] = biological target: Fuc(a1-2)Gal6S(b1-3)GlcNAc6S
# In short: as §1
# [18] = biological target: Fuc(a1-2)Gal6S(b1-4)Glc
# In short: as §1
# [19] = biological target: Fuc(a1-2)Gal6S(b1-4)Glc6S
# In short: as §1
# [20] = biological target: Fuc(a1-2)[Gal(a1-3)]Gal
# In short: as §1
# [21] = biological target: Fuc(a1-2)[Gal(a1-3)]Gal(b1-3)GalNAc
# In short: as §1
# [22] = biological target: Fuc(a1-2)[Gal(a1-3)]Gal(b1-3)GalNAc(b1-3)Gal(a1-4)Gal(b1-4)Glc
# In short: as §1
# [23] = biological target: Fuc(a1-2)[Gal(a1-3)]Gal(b1-3)GlcNAc
# In short: as §1
# [24] = biological target: Fuc(a1-2)[Gal(a1-3)]Gal(b1-3)GlcNAc(b1-2)Man(a1-3)[Fuc(a1-2)[Gal(a1-3)]Gal(b1-3)GlcNAc(b1-2)Man(a1-6)]Man(b1-4)GlcNAc(b1-4)GlcNAc
# In short: as §1
# [25] = biological target: Fuc(a1-2)[Gal(a1-3)]Gal(b1-3)GlcNAc(b1-2)Man(a1-3)[Fuc(a1-2)[Gal(a1-3)]Gal(b1-3)GlcNAc(b1-2)Man(a1-6)]Man(b1-4)GlcNAc(b1-4)[Fuc(a1-6)]GlcNAc
# In short: as §1
# [26] = biological target: Fuc(a1-2)[Gal(a1-3)]Gal(b1-3)GlcNAc(b1-3)GalNAc
# In short: as §1
# [27] = biological target: Fuc(a1-2)[Gal(a1-3)]Gal(b1-3)GlcNAc(b1-6)GalNAc
# In short: as §1
# [28] = biological target: Fuc(a1-2)[Gal(a1-3)]Gal(b1-4)Glc
# In short: as §1
# [29] = biological target: Fuc(a1-2)[Gal(a1-3)]Gal(b1-4)GlcNAc
# In short: as §1
# [30] = biological target: Fuc(a1-2)[Gal(a1-3)]Gal(b1-4)GlcNAc(b1-2)Man
# In short: as §1
# [31] = biological target: Fuc(a1-2)[Gal(a1-3)]Gal(b1-4)GlcNAc(b1-2)Man(a1-3)[Fuc(a1-2)[Gal(a1-3)]Gal(b1-4)GlcNAc(b1-2)Man(a1-6)]Man(b1-4)GlcNAc(b1-4)GlcNAc
# In short: as §1
# [32] = biological target: Fuc(a1-2)[Gal(a1-3)]Gal(b1-4)GlcNAc(b1-2)Man(a1-3)[Fuc(a1-2)[Gal(a1-3)]Gal(b1-4)GlcNAc(b1-2)Man(a1-6)]Man(b1-4)GlcNAc(b1-4)[Fuc(a1-6)]GlcNAc
# In short: as §1
# [33] = biological target: Fuc(a1-2)[Gal(a1-3)]Gal(b1-4)GlcNAc(b1-3)GalNAc
# In short: as §1
# [34] = biological target: Fuc(a1-2)[Gal(a1-3)]Gal(b1-4)GlcNAc(b1-3)[Fuc(a1-2)[Gal(a1-3)]Gal(b1-4)GlcNAc(b1-6)]GalNAc
# In short: as §1
# [35] = biological target: Fuc(a1-2)[Gal(a1-3)]Gal(b1-4)GlcNAc(b1-6)GalNAc
# In short: as §1
# [36] = biological target: Fuc(a1-2)[Gal(a1-3)]Gal(b1-4)[Fuc(a1-3)]Glc
# In short: as §1
# [37] = biological target: Fuc(a1-2)[Gal(a1-3)]Gal(b1-4)[Fuc(a1-3)]GlcNAc
# In short: as §1
# [38] = biological target: Fuc(a1-2)[Gal(a1-3)]Gal(b1-4)[Fuc(a1-3)]GlcNAc(b1-3)GalNAc
# In short: as §1
# [39] = biological target: Fuc(a1-2)[Gal(a1-4)]Gal(b1-4)GlcNAc
# In short: as §1
# [40] = biological target: Fuc(a1-2)[GalNAc(a1-3)]Gal
# In short: as §1
# [41] = biological target: Fuc(a1-2)[GalNAc(a1-3)]Gal(b1-3)GalNAc(a1-3)[Fuc(a1-2)]Gal(b1-4)GlcNAc
# In short: as §1
# [42] = biological target: Fuc(a1-2)[GalNAc(a1-3)]Gal(b1-3)GalNAc(b1-3)Gal(a1-4)Gal(b1-4)Glc
# In short: as §1
# [43] = biological target: Fuc(a1-2)[GalNAc(a1-3)]Gal(b1-3)GlcNAc
# In short: as §1
# [44] = biological target: Fuc(a1-2)[GalNAc(a1-3)]Gal(b1-3)GlcNAc(b1-2)Man(a1-3)[Fuc(a1-2)[GalNAc(a1-3)]Gal(b1-3)GlcNAc(b1-2)Man(a1-6)]Man(b1-4)GlcNAc(b1-4)GlcNAc
# In short: as §1
# [45] = biological target: Fuc(a1-2)[GalNAc(a1-3)]Gal(b1-3)GlcNAc(b1-2)Man(a1-3)[Fuc(a1-2)[GalNAc(a1-3)]Gal(b1-3)GlcNAc(b1-2)Man(a1-6)]Man(b1-4)GlcNAc(b1-4)[Fuc(a1-6)]GlcNAc
# In short: as §1
binder,measurement,setting,value
B1,glycan array binding signal (z-score),[1],-0.088
same,glycan array binding signal (z-score),[2],-0.269
same,glycan array binding signal (z-score),[3],-0.197
same,glycan array binding signal (z-score),[4],-0.186
same,glycan array binding signal (z-score),[5],-0.28
same,glycan array binding signal (z-score),[6],-0.085
same,glycan array binding signal (z-score),[7],-0.341
same,glycan array binding signal (z-score),[8],-0.201
same,glycan array binding signal (z-score),[9],-0.216
same,glycan array binding signal (z-score),[10],0.408
same,glycan array binding signal (z-score),[11],-0.189
same,glycan array binding signal (z-score),[12],-0.241
same,glycan array binding signal (z-score),[13],-0.161
same,glycan array binding signal (z-score),[14],-0.17
same,glycan array binding signal (z-score),[15],-0.304
same,glycan array binding signal (z-score),[16],-0.302
same,glycan array binding signal (z-score),[17],0.063
same,glycan array binding signal (z-score),[18],-0.252
same,glycan array binding signal (z-score),[19],-0.273
same,glycan array binding signal (z-score),[20],-0.258
same,glycan array binding signal (z-score),[21],-0.267
same,glycan array binding signal (z-score),[22],-0.323
same,glycan array binding signal (z-score),[23],0.004
same,glycan array binding signal (z-score),[24],-0.303
same,glycan array binding signal (z-score),[25],0.041
same,glycan array binding signal (z-score),[26],-0.31
same,glycan array binding signal (z-score),[27],-0.214
same,glycan array binding signal (z-score),[28],-0.275
same,glycan array binding signal (z-score),[29],-0.295
same,glycan array binding signal (z-score),[30],-0.312
same,glycan array binding signal (z-score),[31],-0.101
same,glycan array binding signal (z-score),[32],-0.189
same,glycan array binding signal (z-score),[33],0.613
same,glycan array binding signal (z-score),[34],-0.303
same,glycan array binding signal (z-score),[35],-0.194
same,glycan array binding signal (z-score),[36],-0.228
same,glycan array binding signal (z-score),[37],-0.137
same,glycan array binding signal (z-score),[38],-0.227
same,glycan array binding signal (z-score),[39],-0.374
same,glycan array binding signal (z-score),[40],-0.178
same,glycan array binding signal (z-score),[41],-0.315
same,glycan array binding signal (z-score),[42],-0.325
same,glycan array binding signal (z-score),[43],-0.058
same,glycan array binding signal (z-score),[44],-0.282
same,glycan array binding signal (z-score),[45],0.209
